Assay results published in article PMC12040169 (PLOS Biology, 2025).
The other results are listed elsewhere or left out.

The compounds below were run on T1, C. trachomatis L2/434/Bu expressing GFP (CTL2-GFP). Conditions: total inclusion area; 28.5 h, 10 µM; inhibitor.
T1 construct: L2/434/Bu GFP intracellular growth in HeLa cells
Design: species or system HeLa; C. trachomatis total inclusion area by high-content imaging, normalised to DMSO
Method in brief: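 High-content images of fixed, Hoechst-stained infected cultures supply inclusion area and count (growth) plus nuclei number (viability), complementing bulk GFP/resorufin fluorescence. MIC determination is unchanged from the primary assay.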

Compound | % of control remaining
O=C(O)CSc1cccc2cccnc12 [CBK126918] | 119.533
COc1ccc(-c2cncc(N3CCN(C)CC3)n2)cc1 [CBK065378] | 83.3322
CCN(CC)C(=O)c1sc2nc(-c3cccs3)nc(C)c2c1N [CBK115366] | 97.332
COc1ccc(CCN2CCN(c3nccnc3OCc3cc(C)on3)CC2)cc1OC [CBK084207] | 72.1314
O=C(Nc1ccc2[nH]ccc2c1)c1c(F)ccc(Cl)c1F [CBK159673] | 92.2659
COc1cc(CN2CCc3c([nH]c4ccccc34)C2)c([N+](=O)[O-])cc1OC [CBK261588] | 109.334
OC1CCC(Nc2cncc(-c3cccc(Cl)c3)n2)CC1 (centres unmarked) [CBK066031] | 76.0564
Cc1cc(NS(=O)(=O)c2ccc(Cl)c(Cl)c2)n(C)n1 [CBK067254] | 123.287
COc1ccc(Cl)c(NC(=O)NCCN2CCN(c3ccccc3)CC2)c1 [CBK268899] | 109.43
CC(C)c1nnc(CCC(=O)N2CCC(c3ccccc3)C2)o1 (centres unmarked) [CBK281925] | 109.511
Cn1cc(CCC(=O)N2CCc3[nH]c4ccc(Cl)cc4c3C2)cn1 [CBK304636] | 41.4953
O=C(O)c1sc2cc(C(F)(F)F)cnc2c1-c1cccs1 [CBK089890] | 88.5437
O=C(NCCN1CCOCC1)c1cc(-c2ccc(F)cc2)nc2ccc(Br)cc12 [CBK294450] | 122.753
Clc1nccnc1NCCOc1ccccc1 [CBK113564] | 77.8549
O=C(O)CCCC(=O)Nc1ccccc1-c1ccccc1 [CBK231405] | 70.3508
O=C(Cc1cc(F)c(F)c(F)c1)Nc1cnccn1 [CBK161764] | 81.0501
O=C(Nc1nc2ccccc2s1)c1cccnc1Cl [CBK071983] | 90.4122
O=[N+]([O-])c1cc(S(=O)(=O)Nc2ccc(C(O)(C(F)(F)F)C(F)(F)F)cc2)ccc1Cl [CBK062106] | 86.4203
O=C(Nc1ccc(C(=O)OCC(=O)c2cccc3ccccc23)cc1)c1ccccc1 [CBK265518] | 87.1115
CN1C(=O)CC2(C1=O)C(=O)N(CCCOc1ccc(F)cc1)c1ccccc12 (centres unmarked) [CBK075513] | 93.4736
CCOC(=O)C1CCCN(S(=O)(=O)c2sc3ccc(Cl)cc3c2C)C1 (centres unmarked) [CBK154797] | 85.1333
Cc1onc(-c2ccccc2)c1C(=O)Nc1cccc(S(=O)(=O)N2CCOCC2)c1 [CBK268159] | 106.95
COc1ccc(CNC(=O)c2cc(S(=O)(=O)N3CCCC3)cs2)cc1 [CBK307576] | 58.9064
CN(C)CCN(C)c1cncc(-c2cc3ccccc3o2)n1 [CBK066028] | 88.9405
CC1CC1C(=O)NCC(=O)Nc1nc2ccc(OC(F)(F)F)cc2s1 (centres unmarked) [CBK297874] | 65.2877
O=C(O)CCCC(=O)Nc1ccccc1-c1nc2ccccc2[nH]c1=O [CBK280451] | 99.2754
O=C(O)CCCCCNS(=O)(=O)c1ccc(Cl)cc1 [CBK261940] | 85.0129

Compound | % of control remaining
Cc1noc(C)c1CCC(=O)NC(Cc1ccncc1)C1CC(O)C1 (centres unmarked) [CBK306790] | 74.2672
O=C(O)c1ccccc1C(=O)Nc1cccc(-c2noc(-c3cccc(F)c3)n2)c1 [CBK299813] | 43.9528
Nc1ncc(-c2cccnc2)nc1NC1CCC(O)CC1 (centres unmarked) [CBK063840] | 93.8627
Cc1nc2ccccc2n1CCNC(=O)c1ccccc1SCc1ccc(C#N)cc1 [CBK297082] | 113.792
CC(C)(C)OC(=O)NCCC(=O)Oc1ccc2c3c(c(=O)oc2c1)CCCC3 [CBK265008] | 110.881
Clc1ccc(Nc2ncnc3ccccc23)cc1 [CBK072625] | 105.086
O=C(NCc1cc(C2CC2)[nH]n1)C1(c2ccccc2F)CC1 [CBK283140] | 118.167
COc1cc(OC)nc(CN2C(=O)CC3(C2=O)C(=O)N(CC(=O)c2ccccc2)c2ccc(C)cc23)n1 (centres unmarked) [CBK076059] | 90.8265
COc1cccc(NC(=O)CCN2CCN(CCO)CC2)c1 [CBK264207C] | 111.947
COC(=O)C1CCCN1C(=O)C1(Oc2ccc(C)cc2)CCNCC1 (centres unmarked) [CBK306655] | 78.054
COc1ccc(CCNc2c3c(c(C#N)c4nc5ccccc5n24)CCC3)cc1OC [CBK263147] | 74.0401
Cc1c(NC(=O)c2ccccc2Cl)c(=O)n(-c2ccccc2)n1C [CBK088068] | 95.1379
OC(COc1cccc2c1CCCC2)CN1CCC(O)(c2ccccc2)CC1 (centres unmarked) [CBK003585] | 62.3145
COC(=O)CCc1ccc(S(=O)(=O)N2CCCN(Cc3ccc(C)o3)CC2)cc1 [CBK063081] | 108.275
Oc1ccc2ccccc2c1/C=N/Nc1nc(NCc2ccccc2)nc(N2CCOCC2)n1 [CBK261233] | 93.6011
O=C1CC(c2ccccc2)n2nc(C(F)(F)F)nc2N1 (centres unmarked) [CBK288063] | 105.989
O=C(O)c1cc(C(=O)O)c2ccccc2n1 [CBK262304] | 93.7991
Cc1cc(C)n(-c2nc3ccccc3nc2N2CCN(S(=O)(=O)c3ccc(F)c(C)c3)CC2)n1 [CBK268508] | 94.8205
COc1ccc([C@@]23CC=C(N(Cc4ccccc4)C(=O)Nc4ccc(F)c(F)c4)C[C@@H]2N(C)CC3)cc1OC [CBK050179] | 24.3541
Cc1ccc(S(=O)(=O)Cc2ccc(C(=O)NCc3ccco3)cc2)cc1 [CBK268630] | 84.0239
CS(=O)(=O)N1CC2(CCN(Cc3cccnc3)CC2)c2ccccc21 [CBK084006] | 93.8763
COc1ccccc1-c1ccc(CC2(C(=O)NCc3cccs3)CCOCC2)cc1 [CBK286517] | 93.297
O=C(Nc1cccc(C(F)(F)F)c1)c1ccc(N2CCNCC2)c([N+](=O)[O-])c1 [CBK266274] | 73.9746
Nc1ncc(-c2ccc(O)cc2)nc1N1CCN(CCO)CC1 [CBK063685] | 106.142
O=C(NCc1ccc([N+](=O)[O-])cc1)c1cccnc1NCc1ccc2c(c1)OCO2 [CBK153436] | 0.1467
CCn1c(=O)n(CC(=O)N2CCCC3CCCCC32)c2cccnc21 (centres unmarked) [CBK283893] | 101.449
O=C(NC1CCCC1)c1ncoc1-c1ccccc1 [CBK281937] | 46.7375

Compound | % of control remaining
O=C(Nc1ccc2c(c1)OCO2)N1CCN(c2ccc(F)cc2)CC1 [CBK270332] | 97.6993
Cn1ccnc1C1(O)CC2CCC(C1)N2C(=O)NC1CCCCC1 (centres unmarked) [CBK284049] | 101.192
CN(C)S(=O)(=O)c1cc(C(=O)Nc2ccc(C(=O)O)cc2)c(Cl)cc1Cl [CBK266783] | 86.7404
OC(Cn1c(Cc2ccccc2)nc2ccccc21)Cn1c2ccc(Cl)cc2c2cc(Cl)ccc21 (centres unmarked) [CBK262546] | 91.9997
O=C(CSC1c2ccccc2Sc2ccccc21)Nc1ccc(C(=O)O)cc1 [CBK267542] | 89.0604
Cc1ccc(CS(=O)(=O)N(CC(C)C)C2CC2)c(F)c1 [CBK306460] | 34.7074
Cc1cc(Cl)ccc1OC(C)C(=O)NCc1ccccn1 (centres unmarked) [CBK265441] | 112.517
Cc1cccc(-c2ocnc2C(=O)NC(C)c2ccccn2)c1 (centres unmarked) [CBK282427] | 109.199
Cc1noc(C)c1COc1ccc(C(=O)N[C@@H]2CN(C(=O)NC(C)C)CCC[C@H]2O)cc1 [CBK289069] | 71.6293
CCc1noc(C)c1C(=O)Nc1cccc(Cn2cc(Cl)cn2)c1 [CBK268127] | 107.507
CS(=O)(=O)c1ccc2nc(NC(=O)c3ccco3)sc2c1 [CBK287341] | 132.659
Cc1ccccc1N1CCN(C(=O)c2nn[nH]c2Nc2ccccc2F)CC1 [CBK288032] | 78.5822
CCCOC1CCCN(Cc2cn(CC(N)=O)c3ccccc23)C1 (centres unmarked) [CBK282796] | 75.6962
Cc1nn2cc(-c3n[nH]cc3[N+](=O)[O-])cnc2c1C(N)=O [CBK268957] | 91.0525
OCCN1CCN(c2nc(-c3cc(Cl)cc(Cl)c3)cn3ccnc23)CC1 [CBK066558] | 82.0627
CC(C)Nc1nccnc1Sc1ccc(N)cc1 [CBK089485] | 104.658
COc1cccc(CC(=O)N2C3CCC2CC(O)(c2ccco2)C3)c1 (centres unmarked) [CBK284053] | 71.9993
Cc1nn(-c2cccc(C(=O)NC3CCCOC3)c2)c(C)c1Cl (centres unmarked) [CBK282512] | 109.396
CN1CCCN(c2ccc(NS(=O)(=O)c3cccc(F)c3)c3ccccc23)CC1 [CBK200010C] | 2.255
Cc1nc(C)c(C(=O)NCCN2CCCCC2C)s1 (centres unmarked) [CBK282200] | 91.9102
O=C(NCCc1ccc(S(=O)(=O)NC(=O)NC2CCCCC2)cc1)NC1CCCCC1 [CBK011926] | 69.1357
CCCCc1ccc(C(N)=O)nc1C(N)=O [CBK005061] | 62.596
Nc1ncc(-c2ccc(-c3ccccc3F)cc2)c2cccnc12 [CBK067597] | 85.0715
C=CCOC(=O)N1CCC(C(=O)NC(c2ccccn2)c2ccccc2C)CC1 (centres unmarked) [CBK059689] | 99.4824
COc1ccc(/C=C2\S/C(=N/N=C/c3ccc(OC)cc3)N(c3ccc(O)cc3)C2=O)cc1 [CBK262780] | 107.668
COc1ccccc1-c1cccc(CC2(C(=O)NCCc3ccccc3)CCOCC2)c1 [CBK285593] | 99.9898
